# Results taken from the antibiotic and cytotoxicity screens of Wong et al. (2023).
# The list shows a part of the results.
# Tested on: HepG2
# Test: cytotoxicity call (relative viability < 0.9)
# Conditions: 10 µM
row,Structure (SMILES),cytotoxicity call
1,C[N+](C)(CCOc1ccccc1)Cc1ccccc1.O=C([O-])c1cc2ccccc2cc1O,inactive
2,O=C(/C=C/c1ccc(O)c(O)c1)O[C@H]1[C@H](O)C[C@](OC(=O)/C=C/c2ccc(O)c(O)c2)(C(=O)O)C[C@H]1O,inactive
3,O=C(C[C@H]1C=C[C@@H](NC(=O)c2ccncc2)[C@H](CO)O1)NCc1ccncn1,inactive
4,O=C(C[C@H]1CC[C@H]2[C@@H](COC[C@@H](O)CN2C(=O)c2ccc3c(c2)OCO3)O1)NCCN1CCCCC1,inactive
5,COc1ccc(S(=O)(=O)N2C[C@@H](O)COC[C@@H]3O[C@@H](CC(=O)N[C@H]4CCN(Cc5ccccc5)C4)CC[C@H]32)cc1,inactive
6,C[C@@H]1CCCCO[C@@H](CN(C)CC2CC2)[C@H](C)CN([C@H](C)CO)C(=O)c2cc(NC(=O)Nc3ccc(F)cc3)ccc2O1,inactive
7,O=c1cc(-c2ccccc2)[nH]c(=O)[nH]1,inactive
8,C[C@H]1CN([C@@H](C)CO)C(=O)Cc2cc(N(C)C)ccc2O[C@H]1CN(C)S(=O)(=O)c1ccc(F)cc1,inactive
9,C[C@@H]1CN([C@@H](C)CO)C(=O)c2cc(NC(=O)CCN3CCOCC3)ccc2O[C@H]1CN(C)S(=O)(=O)c1ccc(F)cc1,inactive
10,CS(=O)(=O)N1C[C@@H](O)COC[C@H]2O[C@H](CC(=O)NCc3ccccc3)CC[C@@H]21,inactive
11,COC(=O)c1c2oc(c1C(=O)OC)C(=O)N[C@@H](Cc1ccccc1)Cn1cc(nn1)CNC(=O)[C@H](Cc1ccccc1)NC(=O)N[C@@H](CO)CC2,inactive
12,NC1CCN(C(=O)c2cc3ccccc3[nH]2)CC1,inactive
13,C[C@@H]1CN([C@H](C)CO)C(=O)c2cc(NS(=O)(=O)c3cn(C)cn3)ccc2O[C@H]1CN(C)C(=O)Nc1ccc(F)cc1,inactive
14,COc1ccc(NC(=O)N(C)C[C@H]2OCc3cnnn3CCCC(=O)N([C@@H](C)CO)C[C@H]2C)c(OC)c1,inactive
15,C[C@H](CO)N1C[C@H](C)[C@H](CN(C)C(=O)Nc2ccc(N3CCN(C)CC3)cc2)OCc2cn(nn2)CCCC1=O,inactive
16,COc1ccc(CN(C)C[C@@H]2Oc3ccc(NS(=O)(=O)c4cn(C)cn4)cc3C(=O)N([C@@H](C)CO)C[C@H]2C)cc1,inactive
17,Cc1noc(C)c1NC(=O)N(C)C[C@H]1Oc2c(NS(=O)(=O)c3c(C)noc3C)cccc2C(=O)N([C@@H](C)CO)C[C@H]1C,inactive
18,C[C@H]1CN([C@@H](C)CO)C(=O)c2cc(NC(=O)Cn3cnnn3)ccc2O[C@H]1CN(C)Cc1ccc(C(=O)Nc2ccccc2N)cc1,inactive
19,C[C@H](CO)N1C[C@H](C)[C@@H](CN(C)C(=O)NC2CCCC2)Oc2cc(-c3cncnc3)ccc2S1(=O)=O,inactive
20,C[C@H](CO)N1C[C@H](C)[C@H](CN(C)C(=O)Nc2cccc3ccccc23)OCCCC[C@H](C)Oc2ccc(NC(=O)Cc3ccccc3)cc2C1=O,inactive
